# Where two headings read alike, the source gives them in different places. The list shows a part of the results.
# Test system: T1, C. trachomatis L2/434/Bu expressing GFP (CTL2-GFP)
# T1 construct: L2/434/Bu GFP intracellular growth in HeLa cells
# Design: species or system HeLa; C. trachomatis total inclusion area by high-content imaging, normalised to DMSO
# How it was run: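 Imaging read-out: GFP inclusions and Hoechst nuclei captured by high-content imaging after fixation. Inclusion area/number = chlamydial growth; nuclei count = host cell viability. MIC calculated per earlier method.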
# [1] = total inclusion area; 28.5 h, 10 µM; inhibitor
Compound,% of control remaining [1],"% of control remaining (total inclusion area, 28.5 h, 10 µM, inhibitor)"
NC1(C(F)(F)F)Oc2cc(Cl)c(Cl)cc2O1 [CBK021805],51.362,–
CC(Oc1cccc(Br)c1)c1nc(-c2ccc(-n3cccc3)cc2)no1 (stereo not shown) [CBK293986],81.8323,–
CN(C)CCCNC(=S)Nc1ccc(Cl)cc1Cl [CBK264183],108.431,–
O=C(O)c1ccc(CNCc2c(F)cccc2Cl)cc1 [CBK269496C],–,46.9137
Fc1ccc(CCN2CCC(Oc3cncc(OCc4cccnc4)n3)C2)cc1 (stereo not shown) [CBK084469],71.0494,–
COc1ccc(NC(=O)CSc2nnc(C3CC3)n2C)c(OC)c1 [CBK270303],105.214,–
COCC(=O)NC1CCN(CC2(c3ccccc3F)CCCC2)CC1 [CBK284850],94.4899,–
Cc1c(CN2CCCC2(C)C(=O)NC2CCCC2)cnn1C (stereo not shown) [CBK281960],86.0911,–
CCCc1ccc(S(=O)(=O)N(c2ccccc2)C2CCNCC2)cc1 [CBK165121T],76.6215,–
COc1ccc(CN2CCC(Oc3nccnc3OCCN3CCOCC3)CC2)cc1 [CBK082922T],72.0859,–
O=c1n(CC2CCCCC2)c2ccccc2n1S(=O)(=O)c1ccc2ccccc2c1 [CBK106527],93.9649,–
O=C(NCc1ccco1)C1CCN(c2nccc(C(F)(F)F)n2)CC1 [CBK028778],12.0264,–
Cc1oc(-c2ccccc2)cc1C(=O)Nc1c(F)cc(F)cc1OC1CCNCC1 [CBK050326T],69.9391,–
Ic1ccc2c3ccc(I)cc3c3[nH]c(-c4ccccc4)nc3c2c1 [CBK261218],122.229,–
Cc1ccc(S(=O)(=O)N(CC(=O)Nc2ccccc2F)c2cc(Cl)ccc2Cl)cc1 [CBK268647],83.9345,–
COc1cccc(NC(=O)c2cnc(-c3ccccc3)c(-c3cccnc3)c2)c1OC [CBK037487],106.668,–
CCN1CCCC(CNS(=O)(=O)c2cc(-n3cccn3)ccc2OC)C1 (stereo not shown) [CBK306997],15.7454,–
CCOC(=O)CC(=O)COc1nc2cc3c(nc2o1)CCCC3 [CBK269204],101.878,–
Cc1ccc(Cl)cc1N1CCN(C(=O)C2C3C=CC(C3)C2C(=O)O)CC1 (stereo not shown) [CBK287025],136.126,–
Cc1nn(C)c(C)c1S(=O)(=O)n1ccn(-c2cccc(C(F)(F)F)c2)c1=O [CBK106593],102.703,–
Cc1csc(C(Cc2ccsc2)NC(=O)c2c(C)noc2C)n1 (stereo not shown) [CBK285045],104.696,–
CCc1nc2ccc(C(=O)Nc3ccc(NC(C)=O)cc3)cn2c1N(C)CC [CBK145483],76.2706,–
COc1ccccc1CN1CCC2(CCCNC2=O)CC1 [CBK284823],111.003,–
Cc1cccn2c(=O)cc(CN3CCn4c(nnc4C4CC4)C3)nc12 [CBK305232],30.8011,–
CC1=NN(c2ccccc2)C(=O)/C1=C/Nc1ccc(S(=O)(=O)Nc2nc(C)cc(C)n2)cc1 [CBK262368],19.9148,–
Cc1ccccc1OC(C)C(=O)Nc1ccc(S(=O)(=O)N2CCCC2)cc1 (stereo not shown) [CBK269367],110.816,–
Cc1ccc(CN2CC(C(=O)N3CCC(C(=O)O)CC3)CC2=O)cc1 (stereo not shown) [CBK300205],114.706,–

Compound,% of control remaining [1],"% of control remaining (total inclusion area, 28.5 h, 10 µM, inhibitor)"
CCCc1nc2oc3c(-c4ccccc4)c(C(=O)O)c(C)nc3c2c2c1COC(C)(C)C2 [CBK264044],78.5834,–
Cc1nn(Cc2cccc(C(N)=O)c2)c(C)c1Br [CBK022255],96.5732,–
Cc1ccc2nc3c(cc2c1)CNCC(C)O3 (stereo not shown) [CBK281941],121.462,–
O=C(O)c1cccc(Sc2nccc(C(F)(F)F)n2)c1 [CBK115957],101.669,–
C#CCOc1cn([C@H]2C[C@@H](O)[C@@H](CO)O2)c(=O)[nH]c1=O [CBK201278],110.161,–
COC(=O)CN1N=C(C(C)(C)C)Cn2c(cc3ccccc32)C1=O [CBK284204],60.7774,–
O=C(CN1CCC(c2ccccc2F)CC1)NC1CCCC1 [CBK283551],85.3606,–
CCC1(C)CC(=O)c2cc(NC(=O)N3CCc4n[nH]cc4C3)ccc2O1 (stereo not shown) [CBK306846],57.4219,–
COc1ccc2c(c1)c(=O)oc1cc(OCC(=O)N3CCc4ccccc4C3)ccc12 [CBK266346],149.72,–
Cc1nnc(SCC(=O)N/N=C/c2ccncc2)n1-c1ccccc1 [CBK262762],101.05,–
O=C(O)CCCC(=O)NCCc1ccc(Cl)cc1Cl [CBK296930],80.7979,–
COc1ccc(CN2CCN(Cc3ccco3)CC2)cc1OCc1ccccc1 [CBK264225],99.5583,–
Nc1cc2ccccc2nc1C1CCN(C(=O)C2CC=CCC2)CC1 (stereo not shown) [CBK285016],102.376,–
O=C(O)CCSc1nc2ccccc2n1CCOc1ccccc1 [CBK262555],94.5617,–
CCc1ccc(S(=O)(=O)N2CCN(C(c3ccccc3)c3ccccc3)CC2)cc1 [CBK093948],99.8989,–
O=C(CCn1c(=O)oc2ccccc21)Nc1ccc2c(c1)CN(Cc1ccccc1)C2 [CBK285946],119.459,–
CN(C)c1ccc(Nc2cc(Cl)nc3ccnn23)cc1 [CBK037203],121.321,–
COc1cccc(OC)c1OCCCN1CCCCC1 [CBK262719],107.132,–
COc1ccc(OCCCN2C(=O)C3(CC(=O)N(Cc4ccccc4)C3=O)c3cc(OC)ccc32)cc1 (stereo not shown) [CBK075523],102.903,–
Oc1cccc2c1OCO2 [CBK000070],15.7183,–
CN(CC(N)=O)C(=O)CCn1c(=O)oc2cc(Cl)ccc21 [CBK305757],23.1212,–
CC(C)(C)OC(=O)N1CCC(N(CCCO)Cc2ccccn2)CC1 [CBK304246],72.4339,–
CC(C)NC(=O)N1CC[C@H](c2nc3ncccc3[nH]2)C1 [CBK289369],85.6097,–
CCOc1cc(/C=N/NC(=O)CSc2nc(C)cc(C)n2)ccc1O [CBK262405],95.4427,–
CCNC(=O)C1(NC(=O)c2cn3ccccc3n2)CCCCC1 [CBK305240],46.0409,–
CN1C(=O)c2ccccc2C(=O)[C@@]2(C)CN(Cc3ccccc3)C[C@@H]12 [CBK284692],99.2735,–
COCCN1CCC2(C/C=C/C[C@H]3COCC[C@H]3NC(=O)CNC2=O)CC1 [CBK292145],103.645,–

Compound,% of control remaining [1],"% of control remaining (total inclusion area, 28.5 h, 10 µM, inhibitor)"
Cc1ccc(C(=O)N2CCC[C@@H]3NC(=O)c4ccccc4OCC/C=C/C[C@@H]32)c(O)n1 [CBK292080],71.9528,–
CS(=O)(=O)N(CC(=O)NCc1ccccn1)c1ccc(C23CC4CC(CC(C4)C2)C3)cc1 [CBK268448],100.357,–
CCCn1cnnc1C(C)NS(=O)(=O)c1cccc(C(=O)N2CCC2)c1 (stereo not shown) [CBK306569],26.0025,–
Cc1ccc(OCCSc2nnc(N)[nH]2)cc1 [CBK269334],105.253,–
Cc1ccc(OCCOCCN(C)C)c(Cl)c1 [CBK265493G],97.7605,–
CC(C)(C)C1=CC2=NC3(CCCCCCC3)[C@@H]3C[C@@H](O)[C@@H](O)[C@@H]3N2O1 [CBK303256],114.361,–
c1cnc(N2CCN(Cc3ccc4c(c3)OCO4)CC2)c(OCCN2CCOCC2)n1 [CBK082894T],84.4636,–
Cc1ccccc1CN1CC[C@H]2[C@@H](C1)[C@H](c1ccsc1)CN2C(=O)c1ccc(F)cc1 [CBK285638],103.38,–
CC(C)(C)c1csc(NC(=O)C2CC(=O)N(c3cccc(C(F)(F)F)c3)C2)n1 (stereo not shown) [CBK175545],10.6716,–
CN1CN=C2SC3(COC(c4cccc(Br)c4)OC3)C(=O)N2C1 (stereo not shown) [CBK263700],103.14,–
C(=N\Nc1nc2ccccc2[nH]1)/c1cccnc1 [CBK026357],95.5094,–
C[C@H]1[C@@H]2[C@@H](O)C([C@H](C)C(=O)NC3CC3)CC[C@@]2(C)CC[C@@H]1NC(=O)c1cncnc1 (stereo partly shown) [CBK289453],103.483,–
CCN1CCN(C(=O)c2cccc3[nH]ccc23)CC1 [CBK200246],90.6177,–
COc1ccc(C2(O)CCN(CC(O)c3ccc(C(C)(C)C)cc3)CC2)cc1 (stereo not shown) [CBK286333],72.6422,–
CC1(C)CC(=O)C=C(NCC2CCNCC2)C1 [CBK027580],19.8794,–
COc1cc2oc(=O)c(CC(=O)N[C@@H](CC(C)C)C(=O)O)c(C)c2cc1Cl [CBK286772],94.286,–
Cc1csc2c(C3CCN(C(=O)c4cnn(C)c4)CC3)nc(C)n12 [CBK285250],81.7451,–
Cc1ccc(-c2ccn(C(C)C(=O)N(C)C)n2)cc1 (stereo not shown) [CBK016069],52.4943,–
Cc1cc2nc(NS(C)(=O)=O)n(S(C)(=O)=O)c2cc1C [CBK023112],101.39,–
CCOC(=O)c1[nH]c2ccccc2c1NC(=O)c1cc(F)cc(Cl)c1 [CBK160143],98.0694,–
CC(C)c1nc(CC(=O)NCCC(=O)N2CCCc3ccccc32)cs1 [CBK305437],53.4503,–
COc1ccc(C(=O)C2CCN(Cc3cccc4cccnc34)CC2)cc1 [CBK295192],76.3116,–
Clc1ccccc1CN(CCCn1ccnc1)Cc1c[nH]cn1 [CBK282988],76.3273,–
O=C(NC1(c2cccc(F)c2)CCCC1)c1cnccn1 [CBK283619],89.478,–
COc1ccc2[nH]cc(C(C(=O)O)N3CCN(Cc4ccccn4)CC3)c2c1 (stereo not shown) [CBK286846],84.1867,–
